# Source: the supplement of paper PMC6206098
# ± gives the uncertainty stated by the source. The sequences are guide strands of siRNAs; only the seed at positions 2 to 7 varies.
# Key:
# H460 = assay: cell viability relative to lipid-only control; higher = less toxic; details: concentration: 10 nM; 96 h; Homo sapiens
# M565 = assay: as above; details: concentration: 10 nM; 96 h; Mus musculus
# HeyA8 = assay: as above; details: concentration: 10 nM; 96 h; Homo sapiens
# 3LL = assay: cell viability relative to siNT1 control; HeyA8 human ovarian and H460 human lung cancer; M565 mouse liver and 3LL mouse lung cancer; siNT1 is a non-toxic control siRNA; higher = less toxic; details: concentration: 10 nM; 96 h; Mus musculus
# 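Throughout, for cell viability relative to lipid-only control: reverse lipid transfection in 384-well plates, in triplicate, of duplexes on a non-toxic 19mer backbone with passenger strand 2′-O-methylated at positions 1 and 2, luminescence viability read-out.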
# 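Throughout, for cell viability relative to siNT1 control: Luminescence-based viability of cells reverse transfected in 384-well plates with lipid-complexed siRNAs built on a non-toxic 19mer backbone whose passenger strand carries 2′-O-methyl groups at positions 1 and 2, triplicates.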
Sequence,cell viability (H460) [%],cell viability (M565) [%],cell viability (HeyA8) [%],cell viability (3LL) [%]
UUUUGCGACAUGUAAACCAAA,77.6 ± 8.9,102 ± 9.1,95 ± 2,96 ± 12
UAUUAGGACAUGUAAACCAAA,70.2 ± 12,117 ± 16,74.9 ± 6.9,106 ± 15
UGACUUAACAUGUAAACCAAA,64 ± 9.7,61.7 ± 16,86.6 ± 5.9,91.9 ± 15
UGAAUACACAUGUAAACCAAA,57.4 ± 6.2,78.7 ± 11,55.2 ± 3.8,80.7 ± 10
UCGUUUUACAUGUAAACCAAA,94.4 ± 30,75.8 ± 11,76.8 ± 1.6,93.7 ± 12
UGUUUAGACAUGUAAACCAAA,56.4 ± 4,91.8 ± 7.6,59.7 ± 5.2,95 ± 5.5
UUUCCCAACAUGUAAACCAAA,74.8 ± 10,72.9 ± 9.9,95.5 ± 2.8,82.5 ± 5
UUGGGCUACAUGUAAACCAAA,18.5 ± 0.96,28.1 ± 1.7,12.1 ± 0.59,11.5 ± 2.7
UUUCAAAACAUGUAAACCAAA,53.2 ± 4.4,84.1 ± 6.5,99.6 ± 3.4,94.2 ± 9.1
UUCUACUACAUGUAAACCAAA,40.2 ± 1.5,37.2 ± 6.2,67 ± 2.6,27.4 ± 3.6
UAUCCCCACAUGUAAACCAAA,45.8 ± 2.9,12.2 ± 2.3,23.2 ± 2.7,3.4 ± 0.49
UGAGCCCACAUGUAAACCAAA,20.1 ± 3.8,1.97 ± 1.3,39.4 ± 1.7,2.27 ± 0.19
UGAUUCGACAUGUAAACCAAA,37 ± 4.4,10.3 ± 1.9,41.6 ± 2.8,46 ± 10
UCCCGCAACAUGUAAACCAAA,80.2 ± 12,67.4 ± 7.8,83.9 ± 6.9,107 ± 17
UGUCAAGACAUGUAAACCAAA,48.3 ± 8.2,47.8 ± 7,90.6 ± 5.6,87 ± 13
UCCCAGGACAUGUAAACCAAA,54.5 ± 3.3,26.7 ± 3.8,82.1 ± 3.3,89.3 ± 21
UGGCGAUACAUGUAAACCAAA,40.6 ± 8.9,28.4 ± 6.5,5.53 ± 0.69,58.1 ± 13
UGCAAUGACAUGUAAACCAAA,81.4 ± 19,82.3 ± 2.6,60.2 ± 6,90.2 ± 13
UUCGUCGACAUGUAAACCAAA,72.3 ± 5.2,88.2 ± 16,90.8 ± 14,91.2 ± 14
UCGCGAUACAUGUAAACCAAA,85.2 ± 14,83.2 ± 3.2,76.3 ± 4.5,88.6 ± 15

Sequence,cell viability (H460) [%],cell viability (M565) [%],cell viability (HeyA8) [%],cell viability (3LL) [%]
UAGGGCGACAUGUAAACCAAA,51 ± 2.1,30.9 ± 7.3,43.5 ± 3.2,63.1 ± 8.8
UGCGGUAACAUGUAAACCAAA,47.8 ± 2.8,47.1 ± 6.4,16.8 ± 0.69,80.6 ± 7.8
UCACCCAACAUGUAAACCAAA,39 ± 1.2,50.8 ± 5.2,71 ± 1.9,76 ± 16
UUCGGCUACAUGUAAACCAAA,52.8 ± 0.8,63 ± 2.7,50.7 ± 10,96.4 ± 9.2
UAACUCCACAUGUAAACCAAA,56.7 ± 6.1,38.8 ± 8.3,32.9 ± 4,63.4 ± 1.5
UAGGGGCACAUGUAAACCAAA,22.1 ± 3.5,24.1 ± 6.1,6.52 ± 0.95,15.5 ± 6.6
UCAAUGAACAUGUAAACCAAA,62.2 ± 5.1,71.9 ± 10,85.4 ± 5.2,87 ± 23
UGGAGACACAUGUAAACCAAA,25.2 ± 1.3,26.6 ± 5.8,54.2 ± 5.6,48.3 ± 2.6
UCAACUUACAUGUAAACCAAA,54 ± 1.7,74.4 ± 14,90 ± 11,93.7 ± 20
UAUACGCACAUGUAAACCAAA,76.2 ± 12,109 ± 19,109 ± 7.7,39.7 ± 2.5
UGACAAGACAUGUAAACCAAA,47.7 ± 9.3,54.9 ± 12,94.5 ± 3.1,77.2 ± 24
UAUGACAACAUGUAAACCAAA,61.8 ± 11,87.7 ± 26,101 ± 4.9,105 ± 12
UAUAGUAACAUGUAAACCAAA,73.4 ± 10,96.5 ± 8,99.6 ± 5.6,108 ± 11
UCUCACGACAUGUAAACCAAA,14.2 ± 4.2,71.3 ± 20,91.6 ± 6.6,91.7 ± 14
UCUUUGUACAUGUAAACCAAA,62.4 ± 4.7,76.5 ± 7.5,60.6 ± 5.2,75.6 ± 14
UGCACCCACAUGUAAACCAAA,35.4 ± 2.6,14.3 ± 10,13.3 ± 1.1,8.83 ± 1.5
UGACACUACAUGUAAACCAAA,29.5 ± 1.3,22 ± 6.8,35.6 ± 3.9,51.5 ± 5.5
UACGAUCACAUGUAAACCAAA,51.5 ± 3.4,72.1 ± 4.7,66 ± 4.9,86.1 ± 14
UUCGCCGACAUGUAAACCAAA,90.4 ± 22,101 ± 2.9,95.8 ± 6.6,91.1 ± 14
UGCCGUGACAUGUAAACCAAA,64.2 ± 5.3,24.5 ± 2.4,73.9 ± 2.6,78.6 ± 9.6

Sequence,cell viability (H460) [%],cell viability (M565) [%],cell viability (HeyA8) [%],cell viability (3LL) [%]
UACUACCACAUGUAAACCAAA,48.7 ± 0.98,3.76 ± 1.1,31.4 ± 2.6,39.9 ± 5
UAGUAAGACAUGUAAACCAAA,67 ± 6.9,102 ± 2.1,57 ± 15,92.1 ± 7
UCAGCCAACAUGUAAACCAAA,57.8 ± 3.6,57.8 ± 7,84.3 ± 3.5,93.1 ± 12
UCUAAAAACAUGUAAACCAAA,76.8 ± 10,68.9 ± 14,89 ± 11,96.4 ± 14
UCAACGGACAUGUAAACCAAA,66 ± 5.2,77.3 ± 22,67.7 ± 4.6,101 ± 16
UACACACACAUGUAAACCAAA,61.9 ± 3.6,19.6 ± 7.8,45.4 ± 6.1,53.6 ± 8.3
UACUAAAACAUGUAAACCAAA,93.1 ± 20,77.9 ± 5.6,97.9 ± 15,98 ± 11
UGCCAUCACAUGUAAACCAAA,14.8 ± 1.5,6.79 ± 8.8,11 ± 0.9,25.2 ± 7.6
UUGCCCCACAUGUAAACCAAA,62.8 ± 4.9,16 ± 2.3,79.9 ± 10,4.92 ± 2.1
UUAAAAGACAUGUAAACCAAA,85.1 ± 24,96.9 ± 22,96.8 ± 4.1,105 ± 13
UGCCCAGACAUGUAAACCAAA,62.6 ± 4.6,31.2 ± 3.5,55.9 ± 3.7,38.5 ± 3.3
UGAUUUGACAUGUAAACCAAA,63.3 ± 7.9,58.2 ± 3.4,49.3 ± 2.2,60 ± 10
UUGGACAACAUGUAAACCAAA,61.3 ± 2.7,33.6 ± 2.3,66.8 ± 2.1,52 ± 4.9
UUCAUAAACAUGUAAACCAAA,51.6 ± 6.7,96.7 ± 14,107 ± 18,95.4 ± 6.2
UUCAGAUACAUGUAAACCAAA,71.5 ± 9.2,31.7 ± 9.3,55.3 ± 10,73.9 ± 17
UCUGCCUACAUGUAAACCAAA,41.7 ± 2,12.7 ± 2.4,50.8 ± 7.3,54.6 ± 18
UAGCUCGACAUGUAAACCAAA,88.5 ± 10,57.8 ± 6.8,79.3 ± 11,69.2 ± 5.4
UUCCUAUACAUGUAAACCAAA,76.8 ± 11,84.8 ± 9.3,93 ± 11,24 ± 8.3
UUUUAUAACAUGUAAACCAAA,80 ± 4.9,96.4 ± 15,94.1 ± 7.9,98.5 ± 3.3
